The record followed here is the antibiotic and cytotoxicity screens of Wong et al. (2023).

One assay relates to HSkMC. The assay is described as follows: cytotoxicity call (relative viability < 0.9). The following applies: 10 µM.
The next assay deals with HepG2. The assay is described as follows: cytotoxicity call (relative viability < 0.9). The following applies: 10 µM.
The subject of another assay is S. aureus RN4220. Kind of assay: growth inhibition call (relative growth <= 0.2). The following applies: 50 µM.

The other results are listed elsewhere or left out.

`NCC[C@H]1CC[C@@H](NC(=O)C2CC2)[C@@H](CO)O1`: the cytotoxicity call in the assay with HSkMC and with HepG2 was “inactive” throughout. For the same compound, the growth inhibition call with S. aureus RN4220 is “inactive”.

On to `C[C@H]1CN([C@@H](C)CO)C(=O)c2cc(NC(=O)C3CCCCC3)ccc2O[C@H]1CN(C)Cc1ccc(C(F)(F)F)cc1`, for which the cytotoxicity call with HSkMC and in the assay on HepG2 was “inactive” each time. For the same compound, the growth inhibition call with S. aureus RN4220 was “inactive”.

On to `COc1ccccc1-c1cccc(-c2nc(C(=O)Nc3nccs3)cc3c2[C@H](CCO)N(C(=O)CC2CC2)C3)c1`, for which the cytotoxicity call with HSkMC and with HepG2 was “inactive” each time. Besides, in the assay with S. aureus RN4220, the growth inhibition call is “inactive”.

With `N=C(N)NCCC[C@@H](NC(=O)[C@@H](N)Cc1ccc(O)cc1)C(=O)O`, the cytotoxicity call in the assay with HSkMC and with HepG2 was “inactive” each time. The growth inhibition call with S. aureus RN4220 was “inactive”.

Turning to `COc1ccc(C#Cc2cnc3c(c2)C(=O)N([C@H](C)CO)C[C@H](C)[C@H](CN(C)S(=O)(=O)c2ccccc2)O3)cc1OC`, the cytotoxicity call with HSkMC and in the assay on HepG2 was “inactive” throughout. Besides, the growth inhibition call with S. aureus RN4220 is “inactive”.

For the compound `C[C@H]1CN([C@@H](C)CO)C(=O)Cc2cc(NC(=O)Nc3ccc4c(c3)OCO4)ccc2O[C@H]1CN(C)S(C)(=O)=O`, the cytotoxicity call with HSkMC and with HepG2 was “inactive” in each case. The growth inhibition call in the assay with S. aureus RN4220 is “inactive”.

Turning to `COc1ccc([Si](C)(C)[C@H]2[C@H](CC(=O)N(CCO)Cc3ccccc3)O[C@@]3(C(=O)N(Cc4ccc(N5CCOC5=O)cc4)c4ccccc43)[C@@H]2C)cc1`, the cytotoxicity call in the assay on HSkMC and in the assay with HepG2 was “inactive” throughout. Further, in the assay on S. aureus RN4220, the growth inhibition call is “inactive”.

Consider `C[C@H](CO)N1C[C@H](C)[C@@H](CN(C)Cc2ccccn2)Oc2ncc(C#Cc3cccc(F)c3)cc2C1=O`, for which the cytotoxicity call with HSkMC and in the assay with HepG2 was “inactive” throughout. Moreover, the growth inhibition call in the assay with S. aureus RN4220 is “inactive”.

`Cc1ccc(S(=O)(=O)Nc2ccc3c(c2)C(=O)N([C@H](C)CO)C[C@H](C)[C@@H](CN(C)Cc2ccncc2)OCCCC[C@@H](C)O3)cc1`: the cytotoxicity call in the assay with HSkMC and with HepG2 was “inactive” throughout. Moreover, the growth inhibition call in the assay with S. aureus RN4220 is “inactive”.

Regarding `C[C@@H]1CN([C@H](C)CO)C(=O)c2cc(NC(=O)c3ccccc3)ccc2O[C@@H](C)CCCCO[C@H]1CN(C)C(=O)Nc1ccc(F)cc1`, the cytotoxicity call in the assay with HSkMC and in the assay with HepG2 was “inactive” in each case. For the same compound, in the assay with S. aureus RN4220, the growth inhibition call was “inactive”.

With `C[C@H]1CN([C@@H](C)CO)C(=O)c2cccc(NC(=O)C3CC3)c2O[C@@H]1CN(C)Cc1ccc(-c2ccccc2)cc1`, the cytotoxicity call with HSkMC and with HepG2 was “inactive” throughout. Further, the growth inhibition call in the assay on S. aureus RN4220 was “inactive”.

In the case of `COc1ccc(S(=O)(=O)Nc2ccc3c(c2)CC(=O)N([C@@H](C)CO)C[C@H](C)[C@@H](CN(C)Cc2ccc(Oc4ccccc4)cc2)O3)cc1`, the cytotoxicity call with HSkMC and in the assay with HepG2 was “active” in each case. The growth inhibition call in the assay on S. aureus RN4220 is “inactive”.

In the case of `C[C@@H]1CN([C@@H](C)CO)C(=O)c2cc(NC(=O)c3ccccc3)ccc2O[C@@H](C)CCCCO[C@H]1CN(C)Cc1ccc(C(=O)O)cc1`, the cytotoxicity call in the assay with HSkMC and in the assay with HepG2 was “inactive” in each case. Moreover, the growth inhibition call with S. aureus RN4220 was “inactive”.

`C[C@@H]1CN([C@@H](C)CO)C(=O)Cc2cc(NC(=O)CCC(F)(F)F)ccc2O[C@H]1CN(C)Cc1ccc(C(F)(F)F)cc1`: the cytotoxicity call with HSkMC and with HepG2 was “inactive” in each case. Further, the growth inhibition call with S. aureus RN4220 is “inactive”.

Take `C[C@@H]1CN([C@H](C)CO)C(=O)Cc2cc(NC(=O)CCN3CCOCC3)ccc2O[C@@H]1CN(C)Cc1ccc(C(=O)O)cc1`: the cytotoxicity call with HSkMC and in the assay on HepG2 was “inactive” in each case. For the same compound, the growth inhibition call in the assay on S. aureus RN4220 is “inactive”.

`N#Cc1ccc(O)cn1`: the cytotoxicity call in the assay with HSkMC and in the assay on HepG2 was “inactive” throughout. Further, the growth inhibition call in the assay on S. aureus RN4220 is “inactive”.

Turning to `C[C@@H]1CN([C@@H](C)CO)S(=O)(=O)c2ccc(Br)cc2O[C@H]1CN(C)S(=O)(=O)c1ccccc1`, the cytotoxicity call with HSkMC and in the assay with HepG2 was “inactive” each time. Besides, in the assay with S. aureus RN4220, the growth inhibition call was “inactive”.

For the compound `COc1ccc(S(=O)(=O)N2C[C@@H](O)COC[C@@H]3O[C@@H](CC(=O)NCCCN(C)C)CC[C@H]32)cc1`, the cytotoxicity call in the assay with HSkMC and with HepG2 was “inactive” throughout. The growth inhibition call in the assay on S. aureus RN4220 was “inactive”.

Turning to `C[C@H](CO)N1C[C@H](C)[C@@H](CN(C)S(=O)(=O)c2cn(C)cn2)OCCCC[C@H](C)Oc2ccc(NS(=O)(=O)c3ccc(F)cc3)cc2C1=O`, the cytotoxicity call in the assay with HSkMC and in the assay on HepG2 was “inactive” throughout. Moreover, the growth inhibition call in the assay on S. aureus RN4220 was “inactive”.

`C[C@H]1CN([C@@H](C)CO)C(=O)Cc2cc(NC(=O)Cc3cn(C)c4ccccc34)ccc2O[C@H]1CN(C)Cc1ccc(-c2ccccc2)cc1`: the cytotoxicity call with HSkMC and in the assay on HepG2 was “inactive” throughout. In addition, the growth inhibition call in the assay on S. aureus RN4220 was “inactive”.

`C[C@H]1CN([C@@H](C)CO)C(=O)c2cc(NC(=O)Nc3ccc(C(F)(F)F)cc3)ccc2O[C@@H]1CN(C)S(=O)(=O)c1ccc(Cl)cc1`: the cytotoxicity call in the assay on HSkMC is “inactive”. Also, the cytotoxicity call in the assay with HepG2 is “active”. Also, the growth inhibition call in the assay on S. aureus RN4220 was “inactive”.

As for `C[C@H](CO)N1C[C@H](C)[C@H](CN(C)S(=O)(=O)c2ccc(C#N)cc2)Oc2ncc(C#Cc3ccccc3)cc2C1=O`, the cytotoxicity call with HSkMC and in the assay on HepG2 was “inactive” in each case. For the same compound, the growth inhibition call with S. aureus RN4220 was “inactive”.

For `Cn1nccc1NC(=O)COCC(=O)O`, the cytotoxicity call in the assay with HSkMC and with HepG2 was “inactive” each time. In the assay with S. aureus RN4220, the growth inhibition call was “inactive”.

Consider `COc1cccc(S(=O)(=O)N2C[C@@H](O)COC[C@H]3O[C@@H](CC(=O)NCCCN4CCOCC4)CC[C@@H]32)c1`, for which the cytotoxicity call with HSkMC and with HepG2 was “inactive” each time. Besides, in the assay on S. aureus RN4220, the growth inhibition call is “inactive”.

As for `COC(=O)[C@H](Cc1ccccc1)N1CC2=CCCC=C[C@H]2[C@@H]1[C@@H](O)CCn1cc(CCC(=O)NO)nn1`, the cytotoxicity call in the assay on HSkMC and in the assay on HepG2 was “inactive” each time. Further, the growth inhibition call with S. aureus RN4220 was “inactive”.

Take `COc1ccc(NC(=O)N(C)C[C@@H]2Oc3ncc(Br)cc3C(=O)N([C@H](C)CO)C[C@@H]2C)cc1`: the cytotoxicity call in the assay on HSkMC (human skeletal muscle cells) and in the assay with HepG2 was “inactive” in each case. Also, the growth inhibition call in the assay with S. aureus RN4220 is “inactive”.

For `COC1(NC(=O)C2SC(=C(C(N)=O)C(=O)O)S2)C(=O)N2C(C(=O)O)=C(CSc3nnnn3C)CSC21` (configuration not stated), the cytotoxicity call in the assay with HSkMC and with HepG2 was “inactive” in each case. Further, in the assay with S. aureus RN4220, the growth inhibition call was “active”.

Turning to `CN1C(=O)c2cc(NC(=O)Nc3ccccc3F)ccc2OC[C@@H]2O[C@@H](CC(=O)NCc3ccc(-c4ccccc4)cc3)CC[C@H]21`, the cytotoxicity call with HSkMC and in the assay with HepG2 was “inactive” in each case. The growth inhibition call in the assay on S. aureus RN4220 was “inactive”.

As for `C=C1C2CCC3(C)C(c4ccoc4)OC(=O)CC13OC1CC(=O)C(C)(C)C(C(O)C(=O)OC)C12C` (configuration not stated), the cytotoxicity call in the assay with HSkMC and with HepG2 was “inactive” in each case. In the assay with S. aureus RN4220, the growth inhibition call is “inactive”.
